# Assay results: PubChem BioAssay AID1240 (Sanford-Burnham Center for Chemical Genomics, 2008)
# Out of some 50,000 compounds screened, about 800 (1.6%) showed an effect of 50% or more. The list shows a part of the results.
# Biological target: Bcl-2-like protein 10 (Homo sapiens) (UniProt Q9HD36)
# Test: TR3 peptide-Bcl-B binding displacers, biochemical primary FP assay, phenotype converters (AID 1240);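 also: 0% = Bcl-B with tracer peptide and DMSO and 100% = tracer peptide lacking Bcl-B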
# Details: GST-Bcl-B / FITC-TR3 peptide fluorescence polarization; stronger effect = higher value; compound at 3.75 mg/L
# Sequence of UniProt Q9HD36 (Q9HD36 whole entry, looked up): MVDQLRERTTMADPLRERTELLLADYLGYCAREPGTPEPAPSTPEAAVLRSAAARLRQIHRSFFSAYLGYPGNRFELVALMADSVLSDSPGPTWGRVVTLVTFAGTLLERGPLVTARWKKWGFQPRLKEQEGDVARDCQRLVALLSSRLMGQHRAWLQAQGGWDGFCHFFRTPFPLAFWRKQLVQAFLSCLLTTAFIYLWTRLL
row,Structure (SMILES),displacement
1,O=C(Nc1ccc2oc(-c3ccc(F)cc3)nc2c1)c1ccccc1I,-4.8%
2,NC(=O)C1CCN(S(=O)(=O)c2ccc3ccccc3c2)CC1,-3.2%
3,Cc1ccc(S(=O)(=O)Nc2ccccc2C(F)(F)F)cc1,7.8%
4,N=c1sc(Cc2cccc(Cl)c2)cn1CC(=O)c1ccc(F)cc1,8.7%
5,O=C1/C(=C\c2cccc(O)c2)SC(=S)N1c1ccc(F)cc1,2.4%
6,CC1(C)Cc2c(sc(/N=C/N3CCCCCC3)c2C#N)C(C)(C)N1,-8%
7,CC(=O)c1ccc(NC(=S)NC(NC(=O)c2ccc(Br)cc2)C(Cl)(Cl)Cl)cc1 (stereo not given),11.2%
8,Cc1ccc(C2SCC(=O)N2CCCN(C)C)cc1 (stereo not given),-2.1%
9,CCOCCOC(=O)c1ccc(NC(=O)c2cc3ccccc3o2)cc1,-5.2%
10,COC(=O)C1=C(C)NC(=O)CC1c1ccccc1 (stereo not given),3%
11,O=C(Nc1ccccn1)c1sc2cc([N+](=O)[O-])ccc2c1Cl,13.1%
12,CCc1cc(C)cc(OCCOc2ccc(/C=c3\sc4nc5ccccc5n4c3=O)cc2)c1,13.4%
13,CC1(C)CC(=O)C2=C(C1)OC1=C(C(=O)CC(C)(C)C1)C2c1ccc(-c2nnc(N)s2)cc1,-3.3%
14,O=[N+]([O-])c1cccc(-n2cccc2/C=N/Nc2nc(N3CCOCC3)nc(N3CCOCC3)n2)c1,5.9%
15,COc1ccc(OCCNC(=S)Nc2cccc3ccccc23)cc1,-4.5%
16,O=[N+]([O-])c1cc(Cl)ccc1NCCNS(=O)(=O)c1ccc(Cl)cc1,9.5%
17,N#C/C(=C\c1cccc(O)c1)C(=O)Nc1ccc(F)cc1,-6%
18,CCC(=O)N1c2ccccc2NC2=C(C(=O)CC(c3ccccc3)C2)C1c1ccc(C)o1 (stereo not given),-5.3%
19,Cc1ccc2nc(NC(=O)c3ccccc3)sc2c1,-5.2%
20,O=C(O)c1ccc(S(=O)(=O)c2ccc3c(c2)C(=O)N(c2cccc(C(F)(F)F)c2)C3=O)cc1,8.5%
21,O=C(CCc1ccccc1)Nc1ccccc1F,14%
22,CC(=O)c1cccc(NC(=O)c2cc(Cl)ccc2[N+](=O)[O-])c1,29.5%
23,CC(O)C(=O)NS(=O)(=O)c1ccc(C(C)C)cc1 (stereo not given),5.3%
24,CCOC(=O)c1c(NC(=O)c2ccccc2)sc2c1CCN(Cc1ccccc1)C2,12%

row,Structure (SMILES),displacement
1,CC(=O)Oc1ccc2c(C)cc(=O)oc2c1C,-10.7%
2,CC(=O)NN1C(=O)/C(=C\c2ccc(C)cc2)SC1=S,36%
3,CC(=O)Nc1ccc(NC(=O)/C=C/C(=O)O)cc1Cl,-5.8%
4,O=C(CSCc1cccc(Br)c1)NCCc1ccc(Cl)cc1,2.2%
5,CCOC(=O)Cc1csc(NC(=O)COc2cccc(Cl)c2)n1,0.6%
6,Clc1ccc(-c2ccc(/C=N\n3cnnc3)o2)c(Cl)c1,12.6%
7,Cc1cccc(-c2cc(NC(=O)COc3ccc(Cl)cc3Cl)n[nH]2)c1,11.5%
8,CCc1c(C)[nH]n(-c2nc(-c3cccc([N+](=O)[O-])c3)cs2)c1=O,10.5%
9,Cc1cc2oc(=O)cc(C)c2cc1NC(=O)COc1ccccc1C,7.7%
10,COc1ccc(CCNC(=O)Nc2ccccc2Cl)cc1OC,-6%
11,CCOC(=O)c1ccc(-c2ccc(/C=N/O)o2)cc1,-7.5%
12,COc1cccc(C(=O)Nc2ccc(Br)cn2)c1,12.9%
13,CC(C)c1ccc(NC(=O)c2cccc(Cl)c2)cc1,-13.9%
14,NC(=O)c1ccc(NC(=O)c2cc(-c3ccc(Cl)c(Cl)c3)nc3ccccc23)cc1,3.5%
15,CCOc1cc(C=C2C(=O)NC(=S)NC2=O)ccc1OCCOc1ccc(C(C)(C)C)cc1,-7.2%
16,COc1cc(CN2CCN(S(=O)(=O)c3ccc(C)cc3)CC2)cc(OC)c1OC,9%
17,O=C(O)c1ccccc1SC1CC(=O)N(Cc2ccccc2)C1=O (stereo not given),5%
18,Cc1ccc(/C=C/C(=O)c2c3c(c(C)[nH]c2=O)CCCC3)cc1,49.3%
19,C/C(=N\NS(=O)(=O)c1ccccc1)c1cccc(I)c1,8.4%
20,COc1ccccc1NC(=O)C1=C(C)NC(=O)NC1c1cccc([N+](=O)[O-])c1 (stereo not given),-7.1%
21,COc1ccc(-c2cc(C(F)(F)F)n3nc(C(=O)NCc4ccccc4)cc3n2)cc1,4.2%
22,Cc1cc(C)nc(NS(=O)(=O)c2ccc(NC(=S)Nc3ccccc3)cc2)n1,-4.6%
23,Cc1cc([N+](=O)[O-])ccc1NC(=O)COc1ccc(Cl)cc1,1.1%
24,O=C(Nc1nc2ccc3ccccc3c2s1)c1ccc(Cl)s1,-7.2%

row,Structure (SMILES),displacement
1,O=C(c1ccccc1)N1CCN(C2CC3CCC2C3)CC1 (stereo not given),1.7%
2,Cc1c(C(=O)Nc2ccc3c(c2)OCCO3)cccc1[N+](=O)[O-],0.9%
3,Cc1ccc2occ(C(=O)c3ccco3)c(=O)c2c1,1.2%
4,CCOC(=O)/C(N=Nc1cc(C(=O)OC)cc(C(=O)OC)c1)=C(/C)O,1.7%
5,COc1ccc(OC)c(NC(=O)CN(c2cc(C)cc(C)c2)S(=O)(=O)c2ccccc2)c1,-17.3%
6,C=CCn1c(NC(=O)c2cccs2)c(C(=O)OCC)sc1=S,-3.1%
7,COc1ccccc1NC(=O)c1c(NC(=O)C(C)(C)C)sc2c1CCC(C)C2 (stereo not given),-8.4%
8,COc1cc(-c2noc(-c3ccccc3Cl)n2)cc(OC)c1OC,9.5%
9,Cc1ccccc1CNS(=O)(=O)c1ccccc1,-3.2%
10,COc1ccc(C(NC(=O)c2ccccc2OC)c2ccc(OC)cc2)cc1,-5%
11,Cc1nc2cc(N=Cc3ccc(Br)cc3)ccc2n1C,-0.5%
12,Cc1ccc(S(=O)(=O)Nc2ccc(NC(=O)c3sc4cc(C)ccc4c3Cl)cc2)cc1,8.2%
13,COc1cc2c(cc1NC(=O)c1ccccc1Br)oc1ccccc12,-2.8%
14,COc1ccc(CC(=O)NCCCN(C)C)cc1,-1.5%
15,Cc1c(N2C(=O)/C(=C/c3ccc(OC(=O)c4cccc([N+](=O)[O-])c4)cc3)SC2=S)c(=O)n(-c2ccccc2)n1C,13.6%
16,O=C1ON=C(c2ccccc2)/C1=C\c1ccccc1OCc1ccc(F)cc1,-20.5%
17,CCN1C(=O)/C(=C2\SC(=S)N(CC(=O)O)C2=O)c2ccccc21,-4.4%
18,CCCCCCCc1nc2ccccc2[nH]1,13%
19,O=C(O)c1cc(-c2ccc(/C=N/Nc3ccc([N+](=O)[O-])cn3)o2)ccc1Cl,-10.6%
20,CCOC(=O)c1sc(NC(=O)c2ccc(Cl)c(Cl)c2)nc1C,-9%
21,CC(=O)CC(=O)Nc1ccc(Cl)c([N+](=O)[O-])c1,2.1%
22,NC1=NC(=O)C(CC(=O)Nc2ccccc2[N+](=O)[O-])S1 (stereo not given),-8.3%
